Reference: the supplement of paper PMC3334620
Over roughly 33,000 sequences, “E-score (-0.5 to 0.5)” has its median near -0.032; the highest 2% begin near 0.36. The list shows a part of the results.

The sequences below were run against T1, Sko1 (UniProt Q02100) (assay: PBM E-score (8-mer binding enrichment) (E-score (-0.5 to 0.5)); higher = stronger / more preferred TF binding; most listed sequences are background and not binding sites). Conditions: protein concentration: 200 nM; construct: GST-full length.
T1 sequence: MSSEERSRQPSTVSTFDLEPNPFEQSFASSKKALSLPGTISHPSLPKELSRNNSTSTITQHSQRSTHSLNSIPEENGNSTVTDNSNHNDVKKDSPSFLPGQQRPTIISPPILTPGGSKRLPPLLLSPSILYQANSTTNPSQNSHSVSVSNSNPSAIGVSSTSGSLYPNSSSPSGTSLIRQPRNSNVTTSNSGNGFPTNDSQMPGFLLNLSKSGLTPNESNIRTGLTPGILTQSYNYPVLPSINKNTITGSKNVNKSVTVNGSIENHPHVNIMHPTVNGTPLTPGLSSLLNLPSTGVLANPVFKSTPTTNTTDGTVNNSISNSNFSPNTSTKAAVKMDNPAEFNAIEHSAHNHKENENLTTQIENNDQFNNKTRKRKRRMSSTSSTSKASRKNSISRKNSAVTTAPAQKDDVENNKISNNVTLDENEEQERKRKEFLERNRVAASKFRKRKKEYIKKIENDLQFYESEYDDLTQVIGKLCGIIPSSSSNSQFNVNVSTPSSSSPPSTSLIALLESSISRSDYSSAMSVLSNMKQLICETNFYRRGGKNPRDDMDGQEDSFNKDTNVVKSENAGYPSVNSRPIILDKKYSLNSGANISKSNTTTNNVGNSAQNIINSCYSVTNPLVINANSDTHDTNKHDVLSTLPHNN
How it was run: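 Universal all-10-mer Agilent arrays, double-stranded by primer extension on fresh or once-stripped slides, were probed with about 100-200 nM GST-tagged yeast transcription factors made by PURExpress. Fluorescent anti-GST detected bound protein, and masliner normalised the scans. E-scores from the Universal PBM Analysis Suite were given to each ungapped eight-base word pooled with its reverse complement.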
With TATTCTCA the “PBM E-score” value was 0.0674. With AAATACGG the “PBM E-score” value was 0.14. With CCGTCAAG the “PBM E-score” value was -0.0482. For CAACGGGG, the “PBM E-score” value was -0.137. ATCACCAT was tested, and the “PBM E-score” value was 0.141. AACAATAA was tested, and the “PBM E-score” value was 0.141. For CATTTAAC, the “PBM E-score” value was 0.147. For CCCAAGGA, the “PBM E-score” value was -0.251. CTCGCCAC was tested, and the “PBM E-score” value was -0.103. ATTCACCG was tested, and the “PBM E-score” value was 0.0212. In the case of GTATCGAC, the “PBM E-score” value is reported as 0.121. In the case of AACCATGT, the “PBM E-score” value is reported as 0.0529. GCAACACA was tested, and the “PBM E-score” value was -0.0249. With ACCGAATG the “PBM E-score” value was 0.104. In the case of AGTCTAAC, the “PBM E-score” value is reported as -0.134. With AAACGCCG the “PBM E-score” value was 0.0595. For GAGAGGGC, the “PBM E-score” value was -0.397. For ACCTCTGA, the “PBM E-score” value was -0.142. For CGAGATGA, the “PBM E-score” value was 0.0517. For CCCCTGGC, the “PBM E-score” value was -0.409. For CAGTGAAG, the “PBM E-score” value was -0.0921. AACCTGGC was tested, and the “PBM E-score” value was -0.122. In the case of ATCTTGGG, the “PBM E-score” value is reported as -0.0925. For GACTAATC, the “PBM E-score” value was -0.0517. GTCCCAAC was tested, and the “PBM E-score” value was -0.0885. For GTAGAGTA, the “PBM E-score” value was 0.0442. For GGTCACAA, the “PBM E-score” value was -0.151. In the case of CAAGGTGC, the “PBM E-score” value is reported as -0.0355. For ACTAATTC, the “PBM E-score” value was 0.125. GATGCATC was tested, and the “PBM E-score” value was 0.124. In the case of AGCATTCA, the “PBM E-score” value is reported as 0.0119. AAAGGCCC was tested, and the “PBM E-score” value was -0.14. For ATCCATAA, the “PBM E-score” value was 0.153. In the case of AGTGATTC, the “PBM E-score” value is reported as 0.0268. ACGGTAAT was tested, and the “PBM E-score” value was 0.161. With ACATCAGA the “PBM E-score” value was 0.122. AGACGTGC was tested, and the “PBM E-score” value was 0.241. AGCCTGTA was tested, and the “PBM E-score” value was -0.17. GCGTAAGA was tested, and the “PBM E-score” value was 0.378. With AACGGAGG the “PBM E-score” value was -0.184. For GACTACCC, the “PBM E-score” value was -0.128. With AATAGGCG the “PBM E-score” value was -0.19. For AAAATCCA, the “PBM E-score” value was 0.133. For AACTCTGT, the “PBM E-score” value was 0.0449. For CGCCTACC, the “PBM E-score” value was -0.145. ACCATCAC was tested, and the “PBM E-score” value was 0.114. GCGAACTA was tested, and the “PBM E-score” value was 0.122. For AGCATTGC, the “PBM E-score” value was -0.041. CGACCGGC was tested, and the “PBM E-score” value was -0.283. GGGTACAA was tested, and the “PBM E-score” value was -0.0777. With CGGCAAAG the “PBM E-score” value was -0.3. With ACGTTTCA the “PBM E-score” value was 0.333. In the case of AAACATCT, the “PBM E-score” value is reported as 0.121. For GGTATCCA, the “PBM E-score” value was -0.116. In the case of AGTAATCG, the “PBM E-score” value is reported as 0.0515. AACTAGCA was tested, and the “PBM E-score” value was -0.0475. GTTGGTCA was tested, and the “PBM E-score” value was 0.169. For ACATCCTG, the “PBM E-score” value was 0.0143. For AGATCTGC, the “PBM E-score” value was -0.0271. With AGACTGCT the “PBM E-score” value was -0.152. For GCGTTCCC, the “PBM E-score” value was -0.177. For GTCCTACA, the “PBM E-score” value was 0.0593. AGCATAAG was tested, and the “PBM E-score” value was -0.153. In the case of ACTTGATC, the “PBM E-score” value is reported as 0.0278. With GGACGTTA the “PBM E-score” value was 0.251. For AATCTGTA, the “PBM E-score” value was 0.022. ATCACATC was tested, and the “PBM E-score” value was 0.0918.
